Assay results: PubChem BioAssay AID493208 (National Center for Advancing Translational Sciences (NCATS), 2011)
The campaign covered roughly 44,000 compounds. About 340 (0.77%) were called active. Inconclusive results (about 5%) are left out. The call rests on the fitted dose curve; in most records, active means well fitted inhibition curve with a large enough effect; inconclusive means small, poorly fitted or top-dose-only effect; inactive means flat fitted curve, though single readings scatter. The list shows a part of the results.

Assay: Acumen qHTS Assay for Inhibitors of the mTORC1 Signaling Pathway in MEF (Tsc2-/-, p53-/-) Cells: Sytravon;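 further: plate controls were DMSO for no effect and rapamycin for full effect; nearly all actives have a fitted effect of over 50% in size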
Details: phospho-rpS6 immunofluorescence/PI, 24 h; series mostly up to 38.3 µM; activity change, negative = inhibition: at the top concentration
Summary of the method: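 Read-out: phospho-S6 Alexa-488 intensity over PI intensity per well, scored as % active cells using thresholds from rapamycin (7.5 nM) and DMSO controls. Tsc2-/-, p53-/- MEFs exposed to compound for 24 h; PI cell count recorded as viability.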

Row | SMILES | activity change, negative = inhibition
1 | Cc1cccc(NC(=O)CSc2nccn2-c2cccc(Cl)c2)c1C | inactive: -0.0367%
2 | CCOc1cc(C2c3c(-c4ccccc4O)n[nH]c3C(=O)N2Cc2cccnc2)ccc1O (stereo not given) | inactive: 3.25%
3 | CCC(C(=O)NCc1ccccc1Cl)n1nc(C)c2sc3ccccc3c2c1=O (stereo not given) | inactive: 5.07%
4 | Cc1ccc(NC(=O)c2sc(-n3nc(C)c(Cc4ccc5c(c4)OCO5)c3C)nc2C)cc1C | inactive: -0.415%
5 | O=C(CCCn1c(=O)c2sccc2n(Cc2cccc(Cl)c2)c1=O)NCc1ccc2c(c1)OCO2 | inactive: -14.7%
6 | CCOC(=O)CN1C(=O)c2cccnc2Oc2ccccc21 | inactive: -0.82%
7 | Cc1cc(C)cc(NC(=O)CSCc2cc(=O)c3ccc(C)c(C)c3[nH]2)c1 | inactive: -14.3%
8 | CNS(=O)(=O)c1cn(CC(=O)N2CCN(c3cc(C)ccc3C)CC2)cc1S(=O)(=O)NC | inactive: -2.38%
9 | O=c1cc(-c2ccccc2)n2c(SCc3cccc([N+](=O)[O-])c3)nnc2[nH]1 | inactive: -0.85%
10 | COc1ccc(NC(=O)CSc2nc(-c3ccco3)nc3cc(=O)[nH]n23)cc1 | inactive: -5.44%
11 | CCOc1cc(C(=O)N2CCC(c3ccncc3)CC2)cc(OCC)c1OCC | inactive: -0.868%
12 | CCOc1ccc(NC(=O)CN2CCN(CC(=O)Nc3ccccc3OCC)CC2)cc1 | inactive: 0.735%
13 | Cc1cc(C(=O)Nc2c(C)nn(Cc3ccc(F)cc3)c2C)no1 | inactive: 3.28%
14 | NC(=O)C1CCN(C(=O)Cn2c(-c3cccs3)cc3ccccc32)CC1 | inactive: -0.8%
15 | CCCCN(c1ccccc1)S(=O)(=O)c1ccc2c(c1)CC(C)N2C(=O)C1CC1 (stereo not given) | inactive: -16.8%
16 | CCc1ccccc1Nc1nc2ccccc2n2cnnc12 | inactive: -11.7%
17 | COc1ccc(CCNC(=O)CCn2c(=O)c3cccn3c3cccnc32)cc1OC | inactive: 0.774%
18 | CC1CN(S(=O)(=O)c2ccc3c(c2)NC(=O)CC(=O)N3)c2ccccc2O1 (stereo not given) | inactive: -1.91%
19 | COc1ccccc1-n1nc(-c2ccccc2)c2cnc3cc(C(F)(F)F)ccc3c21 | inactive: -1.21%
20 | CCOC(=O)c1ccc(NC(=O)COC(=O)c2cn(CC)c3nc(C)ccc3c2=O)cc1 | inactive: -3.63%
21 | Cc1cccc(C)c1OC(=O)CSc1nnc(-c2cccs2)o1 | inactive: 6.66%
22 | COc1ccc(-c2oc3ncn4nc(-c5ccccc5C)nc4c3c2-c2ccc(OC)cc2)cc1 | inactive: 14.6%
23 | Cc1ccc(C)c(CN2C(=O)c3ccccc3S(=O)(=O)c3ccc(C(=O)N4CCN(c5ccccc5F)CC4)cc32)c1 | inactive: 2.35%
24 | O=S(=O)(Nc1ccc(-c2ccc(N3CCCC3)nn2)cc1)c1cccc(C(F)(F)F)c1 | inactive: -10.6%

Row | SMILES | activity change, negative = inhibition
25 | COc1ccc(CNC(=O)CCc2nnc3n(CC(C)C)c(=O)c4ccccc4n23)cc1 | inactive: 0.493%
26 | COc1ccc(C)cc1NS(=O)(=O)c1ccc2[nH]c(=O)c(=O)[nH]c2c1 | inactive: -13.8%
27 | CCn1ccc2cc(S(=O)(=O)N3CCCN(C(=O)NCCOC)CC3)ccc21 | inactive: -4.65%
28 | CCS(=O)(=O)N1CCc2cc(C(=O)Nc3cc(C(F)(F)F)ccc3Cl)ccc21 | inactive: 1.85%
29 | COc1cccc(NC(=O)Cn2c(=O)n(CCCCC(=O)NCCc3ccccc3)c(=O)c3ccccc32)c1 | inactive: 5.39%
30 | CCOC(=O)C1=C(CN2CCN(c3cc(C)ccc3C)CC2)NC(=O)NC1c1ccc(Cl)cc1 (stereo not given) | inactive: -0.61%
31 | O=c1c2ccccc2n(Cc2ccccc2F)c(=O)n1-c1cccc(F)c1 | inactive: -4.79%
32 | Cc1ccc(C(=O)Nc2onc3c2CCCC3)cc1 | inactive: -8.34%
33 | O=C(CSc1nnc2ccc3ccccc3n12)c1ccc(F)cc1 | inactive: -9.34%
34 | COc1ccccc1CNC(=O)c1cnc2sc(N3CCCCCC3)nn2c1=O | inactive: -18.1%
35 | Cc1cccc(NC(=O)c2ccc(-c3nc(CSc4ccccc4)c(C)o3)cc2)c1C | inactive: 0.613%
36 | Cc1nc2sc(C(N)=O)c(N)c2c(-c2ccc(Br)cc2)c1C(=O)Nc1ccc(Cl)cc1 | inactive: 0%
37 | CSc1ccc(CNC(=O)CCn2c(=O)c3cccn3c3ccc(F)cc32)cc1 | inactive: 0.0257%
38 | Cc1ccccc1C(=O)Nc1ccc2c(c1)CCCN2C(=O)c1cccs1 | inactive: 0%
39 | COc1ccc(C(=O)N2CCC(c3nc(-c4ccc(S(=O)(=O)N5CCCC5)cc4)no3)CC2)cc1 | inactive: -5.35%
40 | COC(=O)c1cc2occc2n1Cc1cccc(C)c1 | inactive: 5.26%
41 | COc1ccc(C(=O)Nc2ccc(-c3nc4ccccc4s3)cc2C)cc1Cl | inactive: -6.14%
42 | COCCNC(=O)CCN1C(=O)c2cccnc2Oc2ccc(C)cc21 | inactive: -9.28%
43 | NC(=O)Cn1c(=O)n(CCCCCC(=O)NCc2ccccc2)c(=O)c2sccc21 | inactive: 6.12%
44 | Cc1ccc(-n2nc(C(=O)Nc3ccc(C)c(F)c3)c3c4ccccc4n(C)c3c2=O)cc1 | inactive: 5.8%
45 | CC(=O)Nc1nonc1-c1nnc(SCC(=O)Nc2ccc(C)c(Cl)c2)n1-c1ccccc1 | inactive: -24.5%
46 | COc1ccc(-n2c(=O)c3ccccc3n(Cc3ccccc3C)c2=O)c(OC)c1 | inactive: 5.8%
47 | CCOc1ccc(C(=O)c2cnc3ccc(Cl)cc3c2S(=O)(=O)c2ccc(C)cc2)cc1 | inactive: -2.86%
48 | CCc1ccccc1Nc1nc2cc(Cl)c(Cl)cc2nc1-n1nc(C)cc1C | inactive: 5.86%

Row | SMILES | activity change, negative = inhibition
49 | Cc1ccc(-n2nc(CO)c(C(=O)NCCCc3ccccc3)n2)cc1 | inactive: 0.759%
50 | CC(=O)Nc1ccc(NS(=O)(=O)c2c(C)nc3sccn3c2=O)cc1 | inactive: 3.74%
51 | Cc1ccc(-n2ncc3c(Nc4ccccc4C)ncnc32)cc1 | inactive: -5.23%
52 | CCOc1ccc(CNC(=O)C2CCCN(S(=O)(=O)N(C)c3ccc(F)cc3)C2)cc1OC (stereo not given) | inactive: -2.62%
53 | COc1cccc(Cn2c(NCc3ccc(C)cc3)nc3c2c(=O)n(C)c(=O)n3C)c1 | inactive: -7.39%
54 | CC(=O)c1ccc(NC(=O)c2ccc(-c3nc(COc4ccc(C)cc4)c(C)o3)cc2)cc1 | inactive: 0.868%
55 | Cc1nn(-c2ccc3nnc(C)n3n2)c(C)c1CCC(=O)Nc1ccc(OC(F)(F)F)cc1 | inactive: -9.13%
56 | COc1ccc(-c2cn3nc(N4CCCC(C(=O)NCc5ccccc5OC)C4)sc3n2)cc1 (stereo not given) | inactive: -1.06%
57 | CCOC(=O)c1cnc2c(ccc3ccccc32)c1Nc1ccc(Cl)cc1 | inactive: 4.61%
58 | COC(=O)c1cc(-c2ccc(OC)c(OC)c2)c2c(=O)[nH]c(=O)n(C)c2n1 | inactive: 0.473%
59 | CCC(=O)N1CCc2cc(S(=O)(=O)NC(CC(C)C)C(=O)NCc3ccc(F)cc3)ccc21 (stereo not given) | inactive: 1.35%
60 | Cc1ccc(NC(=O)Cn2c(=O)n(Cc3nc(C)no3)c(=O)c3cc4c(cc32)OCO4)c(Cl)c1 | inactive: -5.14%
61 | Cc1cccc(C)c1NC(=O)Cn1c(=O)n(Cc2ccco2)c(=O)c2ccc(C(=O)NC3CCCC3)cc21 | inactive: -0.72%
62 | CC1Cc2cc(S(=O)(=O)CCC(=O)Nc3ccc(F)c(Cl)c3)ccc2N1C(=O)C1CC1 (stereo not given) | inactive: -5.96%
63 | O=C(CCn1c(=O)c2sccc2n(Cc2cccc(F)c2)c1=O)NCc1ccc2c(c1)OCO2 | inactive: 6.69%
64 | COc1ccc(-n2c3c(cc(-c4nc(-c5ccc(Cl)cc5)cs4)c2=O)C(=O)CC(C)(C)C3)cc1 | inactive: -16.4%
65 | COc1ccc(NC(=O)c2sc3nc4n(c(=O)c3c2C)CCC4)cc1Cl | inactive: 6.99%
66 | Cc1ccc2scc(N3CCN(c4ccc(F)cc4)CC3)c(=O)c2c1 | inactive: -6.63%
67 | COc1ccc(CCNC(=O)c2ccc3c(c2)N(Cc2cccc(Cl)c2)C(=O)CS3)cc1OC | inactive: 0%
68 | COc1ccc(C2c3c(n(C)c4ccccc34)C(=O)N2CC(=O)Nc2ccccc2F)cc1 (stereo not given) | inactive: -18.5%
69 | CCOc1ccc(C(c2c(O)cc(C)n(CCOC)c2=O)N2CCC(C)CC2)cc1 (stereo not given) | inactive: 1.56%
70 | O=C(NCc1ccc(Cl)cc1)c1cnc2sc(N3CCCC3)nn2c1=O | inactive: 2.23%
71 | O=C(CC1N=C2c3ccccc3N=C(SCc3ccccc3F)N2C1=O)NCc1ccc2c(c1)OCO2 (stereo not given) | inactive: -3.48%
72 | COc1ccc(Cl)cc1NC(=O)CN(c1cccc(C)c1C)S(=O)(=O)c1ccccc1 | inactive: 3.72%

Row | SMILES | activity change, negative = inhibition
73 | COc1cc(C)ccc1OCCn1c(-c2ccc(Cl)cc2)nc2ccccc2c1=O | inactive: -6.28%
74 | COc1ccc2c(c1)sc1ncc(C(=O)NCc3cccc(Cl)c3)c(=O)n12 | inactive: -4.31%
75 | Cc1ccc(CCNC(=O)c2ccc(CSCc3ccccc3Cl)o2)cc1 | inactive: 4.97%
76 | CCOc1ccc(NC(=O)Cn2c(=O)oc3cc(S(=O)(=O)N4CCCCCC4)ccc32)cc1 | inactive: -9.62%
77 | Cc1ccc(N(C)S(=O)(=O)c2nnc(NC(=O)C3CCCCC3)s2)cc1 | inactive: 0.4%
78 | CCc1ccc(CNC(=O)c2cc(-c3ccc(Cl)s3)nc3ccccc23)cc1 | inactive: 15.9%
79 | O=C(Cc1ccc(NC(=O)N2CCSc3ncccc32)cc1)NCCc1ccccc1 | inactive: -0.575%
80 | CCOC(=O)N1CCc2c(sc3c2c(=O)n(-c2ccc(CC)cc2)c(=O)n3CC(=O)Nc2ccc(C)cc2)C1 | inactive: 0.273%
81 | CCNc1ccc(-c2nc(-c3ccco3)no2)cc1[N+](=O)[O-] | inactive: -16.3%
82 | CCOc1ccc(CNC(=O)c2ccc3c(c2)c(C)c(C)n3Cc2ccc(Cl)cc2)cc1 | inactive: 3.63%
83 | CN(C)S(=O)(=O)n1cc(/C=C(\NC(=O)c2ccccc2)C(=O)NCCCn2ccnc2)c2ccccc21 | inactive: 0.0857%
84 | O=C(NCCOCCn1c(=O)oc2ccccc21)Nc1ccc(Cl)cc1 | inactive: 0.512%
85 | Cc1ccccc1NC(=O)c1c(NC(=O)Cc2ccccc2)sc2c1CCC2 | inactive: 3.33%
86 | Cc1cc(C)c(NC(=O)c2cc(S(=O)(=O)N3CCN(c4ccccc4F)CC3)ccc2F)c(C)c1 | inactive: -0.844%
87 | COc1ccc(N2CC(NC(=O)CCc3ccccc3)CC2=O)cc1OC (stereo not given) | inactive: -0.932%
88 | Cc1ccc2oc(=O)n(CCCOc3ccc(Cl)cc3)c2c1 | inactive: 1.53%
89 | CCOC(=O)c1ccccc1NC(=O)N1CCC(N2CCN(Cc3ccccc3)C(=O)C2=O)CC1 | inactive: 0.384%
90 | COc1cc(OC)c(Nc2nc3ccccc3nc2-n2nc(C)cc2C)cc1Cl | inactive: 0.11%
91 | O=C(Cn1c(=O)n(CC2CCCO2)c(=O)c2ccccc21)Nc1cccc(Cl)c1 (stereo not given) | inactive: 6.99%
92 | COC(=O)c1scc(-c2ccc(C)cc2)c1S(=O)(=O)N1CCN(c2ccc(OC)cc2)CC1 | inactive: -4.53%
93 | CCS(=O)(=O)N1CCc2cc(C(=O)NCc3ccccc3)ccc21 | inactive: -2.59%
94 | Cc1ccc(-c2nc3nc(C)cc(Nc4ccccc4O)n3n2)cc1 | inactive: -4.79%
95 | COc1cc(OC)c(NS(=O)(=O)c2cc(-c3cnc(C)o3)ccc2OC)cc1Cl | inactive: -8.67%
